Where “and” joins values, the source holds several entries; their conditions need not be identical. Equal values may be shown once. The list shows a part of the results. Entries with a potency or affinity are not part of this list.
Tested on: Acinetobacter baumannii
Settings: Concentration 32 ug.mL-1, ASSAY_TEST Inhibition of Bacterial Growth, detection method Absorption (OD600), MEDIA CAMHB, plate type 384well, NBS, CORNING #3640, time 18 hr

Structure (SMILES) | Inhibition [%] | Inhibition (32 ug/mL)
Cl.ClCCCCN1CCCCC1 | 0.01 | 
Cc1ccc(C2c3c(nc4c(c3N)CCCC4)Oc3ccc4ccccc4c32)cc1 (stereo not drawn) | -14.46 | 
Cc1nc(NCc2ccccc2)c2cnn(-c3ccccc3)c2n1 | -6.62 | 
CCOC(=O)C1=C(C)OC(N)=C(C#N)C1c1ccc(F)cc1 (stereo not drawn) | 10.38 | 
Cl.ClCCCCCN1CCCCC1 | -5.71 | 
N#CC1=C(N)NC(=O)CC1c1ccccc1 (stereo not drawn) | -9.54 | 
C#CCN(C)Cc1cc2cc(OCCCC3CCN(Cc4ccc(OC)c5ncccc45)CC3)ccc2n1C | 2.88 | 
Cc1ccc(CNNC(=O)c2c[nH]c3ccccc23)cc1 | -10.96 | 
CC#CCN(Cc1ccccc1)c1nc(N)c(C#N)cc1C#N | 1.09 | 
C=C1CN(C)c2ncc(C#N)c(=N)n21 | 0.64 | 
C=C1CN(C)c2c(C#N)c(-c3ccccc3)c(C#N)c(=N)n21 | -1.06 | 
Nc1c2c(nc3ccc([N+](=O)[O-])cc13)CCCC2 | 1.74 | 
Cn1c(CNNC(=O)c2ccco2)cc2ccccc21 | 12.28 | 
O=C1OC(c2ccccc2)=NC1=Cc1ccccc1Cl | 1.28 | 
COc1ccccc1C1c2ccc3ccccc3c2Oc2nc3c(c(N)c21)CCCC3 (stereo not drawn) | -4.98 | 
C#CCNc1nc(NCCC2CCN(Cc3ccccc3)CC2)c(C#N)cc1C#N | 7.59 | 
CN1C/C(=C\Cl)n2c1c(C#N)c(-c1ccccc1)c(C#N)c2=O | 1.38 | 
CC#CCN(Cc1ccccc1)c1nc(N)c(C#N)c(-c2ccccc2)c1C#N | 5.1 | 
N#Cc1c(-c2cccc([N+](=O)[O-])c2)c2ccc3ccccc3c2oc1=O |  | 3.35% and 1.61% and 0.73%
CN(C)c1nc(N)c(C#N)c(-c2ccccc2)c1C#N | 2.72 | 
N#Cc1c(N)nc(NC2CCN(Cc3ccccc3)CC2)c(C#N)c1-c1ccccc1 | 11.43 | 
CCOC(=O)/C(C#N)=C\c1ccc(Cl)cc1 | 7.09 | 
CN(N=O)C(=O)NC1(C(=O)O)CC1c1ccccc1 (stereo not drawn) | -1.93 | 

Structure (SMILES) | Inhibition [%] | Inhibition (32 ug/mL)
CSC1=NC(=Cc2cn(C)c3ccccc23)C(=O)N1C | -0.26 | 
Cl.N#Cc1c(Cl)nc(N)nc1NCCO | 7.93 | 
CS(=O)(=O)O[C@H]1CC[C@H](OS(C)(=O)=O)CC1 | 15.97 | 
N#CC1=C(Cl)Oc2c(ccc3ccccc23)C1c1cccc([N+](=O)[O-])c1 (stereo not drawn) | -8.51 | 
NNC(=O)c1cc2ccccc2n1Cc1ccccc1 | -7.92 | 
COC(=O)C1CCN(Cc2ccccc2)CC1 | -1.76 | 
CCCCNNC(=O)c1cc2ccccc2[nH]1 | 4.18 | 
COc1cccc(C2c3c(nc4c(c3N)CCCC4)Oc3ccc4ccccc4c32)c1 (stereo not drawn) | -9.55 | 
COc1ccc2cc(C3C4=C(CC(C)(C)CC4=O)Oc4nc5c(c(N)c43)CCC5)c(Cl)nc2c1 (stereo not drawn) | 6.3 | 
CCOC(=O)c1c[nH]c2ccc(OC)cc12 | 5.01 | 
Cc1nn(-c2ccccc2)c2ncnc(NCc3ccccc3)c12 | 3 | 
CCOC(=O)C1=C(C)OC(N)=C(C#N)C1c1ccco1 (stereo not drawn) | 7.08 | 
C/C(Cc1ccccc1)=N/NC(=O)c1c[nH]c2ccc(O)cc12 | -4.87 | 
COc1cc(C=NNC(=O)Cc2c[nH]c3ccccc23)ccc1O | -1.21 | 
O=C(Cc1cccc2ccccc12)N/N=C/c1c[nH]c2ccccc12 | 3.78 | 
CC(=O)Oc1ccc(C=C2N=C(c3ccccc3)OC2=O)c(OC(C)=O)c1 | 7.89 | 
O=C1OC(c2ccc([N+](=O)[O-])cc2)=NC1=Cc1ccccc1 | -1.38 | 
CC1CC(=O)Nc2c1c(Cl)nc1nc3c(c(N)c21)CCCC3 (stereo not drawn) | 2.21 | 
O=C(N/N=C/c1cccc(Cl)c1)c1cc2ccccc2[nH]1 | -1.48 | 
CC(=O)Nc1n[nH]c2nc(N)c(C#N)c(-c3ccccc3)c12 | 5.41 | 
COC(=O)C(=Cc1ccccc1)NC(=O)c1ccccc1 | -5.12 | 
Cn1ccnc1C1c2c(nc3c(c2N)CCC3)Oc2ccc3ccccc3c21 (stereo not drawn) | -1.81 | 
CN(C)c1ccc(C(=NNC(=O)c2cc3ccccc3[nH]2)c2ccc(N(C)C)cc2)cc1 | -10.66 | 

Structure (SMILES) | Inhibition [%] | Inhibition (32 ug/mL)
COC1=C(C#N)C(c2ccccc2)C(C=O)=C(Cl)N1 (stereo not drawn) | 8.41 | 
Cl.ClCCCN1CCCCC1 | 0.47 | 
N#Cc1c(NC2CCC(Cc3ccccc3)CC2)nc(NC2CCN(Cc3ccccc3)CC2)c(C#N)c1-c1ccccc1 (stereo not drawn) | 10.4 | 
C#CCNc1ccc(Cl)nn1 | 13.58 | 
Cc1ccc(C2c3c(Cl)nnnc3Oc3ccc4ccccc4c32)cc1 (stereo not drawn) | -1.86 | 
NC1(C(=O)O)CC1c1ccc2c(c1)OCO2 (stereo not drawn) | -9.01 | 
Cc1cnc2ccc(Cl)cn12 | 1.77 | 
CCOc1nc(N)c(C#N)cc1C#N.Cl | 5.7 | 
C#CCN(C)c1nc(N)c(C#N)cc1C#N |  | 12.81% and -3.64%
Cl.Nc1c2c(nc3c1C(c1ccccc1)c1ccc4ccccc4c1O3)CCCC2 (stereo not drawn) | -26.54 | 
O=C(NNCCc1ccccc1)c1cc2ccccc2[nH]1 | -8.77 | 
C#CCN(C)Cc1cc2cc(OCCCC3CCN(C(=O)OC(C)(C)C)CC3)ccc2n1C | 11.4 | 
COc1ccc(C2c3c(nc4c(c3N)CCCC4)Oc3ccc4ccccc4c32)cc1OC (stereo not drawn) | -3.51 | 
C#CCN(C)Cc1cc2cc(OCCCCC3CCN(Cc4ccccc4)CC3)ccc2n1C | 6.24 | 
Cn1cc(/C=C2\NC(=S)NC2=O)c2ccccc21 | -6.57 | 
COc1ccc(C2C(C#N)=C(Cl)Oc3c2ccc2ccccc32)cc1OC (stereo not drawn) | -5.78 | 
O=Cc1c[nH]c2ccccc12 [3-FORMYLINDOLE] | 13.93 | 
CCOC(=O)c1c(C)nc(N)c(C#N)c1-c1cccs1 | 7.31 | 
N#CC1=C(N)Oc2ccc3ccccc3c2C1c1ccc(O)cc1 (stereo not drawn) | 8.77 | 
c1ccc(COc2ccc3[nH]ccc3c2)cc1 | -1.67 | 
CNC(=O)NC1(C(=O)O)CC1c1ccccc1 (stereo not drawn) | -11.74 | 
C=C1CN(C)c2c(C#N)cc(C#N)c(=S)n21 | 7.47 | 
